This is one part of the list.

The experiment addresses T1, MBP-FoxP1dN (Mus musculus, UniProt P58462 326-579).
T1 sequence: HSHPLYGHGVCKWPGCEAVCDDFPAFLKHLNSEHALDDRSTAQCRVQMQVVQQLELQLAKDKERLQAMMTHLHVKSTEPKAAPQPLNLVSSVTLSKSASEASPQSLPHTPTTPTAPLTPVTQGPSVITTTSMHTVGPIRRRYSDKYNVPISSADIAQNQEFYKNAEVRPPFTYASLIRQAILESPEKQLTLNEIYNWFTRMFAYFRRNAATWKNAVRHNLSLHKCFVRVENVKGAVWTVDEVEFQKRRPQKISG
Description: PD-seq (MBP pull-down with sequencing); 20 mM Tris-HCl pH 7.5, 100 mM NaCl, 1.5 mM MgCl2, 0.4 uM protein, 0.1 uM dsDNA library, 30 min, room temperature, amylose pull-down; high values mean tight binding. To be noted: protein: recombinant; tags: His6-MBP; chain copies: 2; dsDNA, one strand shown. A digest of the protocol:
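A degenerate double-stranded DNA library, filled in with Klenow, was added at 0.1 µM to 0.4 µM His6-MBP-tagged mouse FoxP3 or FoxP1 fragment lacking the N-terminus, expressed in E. coli. Incubation lasted 30 min at room temperature in Tris pH 7.5 buffer with NaCl and MgCl2, after which complexes were collected on amylose resin, washed three times, digested with proteinase K to free the DNA, barcoded by PCR and sequenced by Illumina. Binding is the pooled-replicate reads-per-million enrichment of pull-down over input.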
Take “GATGATTGTTCTCCCAGCTGATGAATTCCAAGCATCGAGTAAACAAATTTTCCTAATCTTTCTGTTCAAGCGCCATCTAC”: the binding signal was 0.968 RPM ratio (pull-down/input). As to “GATGATTGTTCTCCCAGCTGATGAATTTGCTCTATCGAGTAAACAAATTTTCCTAATCTTTCTGTTCAAGCGCCATCTAC”, the binding signal is 0.97 RPM ratio (pull-down/input). Regarding “GATGATTGTTCTCCCAGCTGATGAATTCGTCGTGTCGAGTAAACAAATTTTCCTAATCTTTCTGTTCAAGCGCCATCTAC”, the binding signal was 0.922 RPM ratio (pull-down/input).

Regarding “GATGATTGTTCTCCCAGCTGATGAATTTGGCGGGTCGAGTAAACAAATTTTCCTAATCTTTCTGTTCAAGCGCCATCTAC”, the binding signal was 0.737 RPM ratio (pull-down/input). In the case of “GATGATTGTTCTCCCAGCTGATGAATTCGTGTCATCGAGTAAACAAATTTTCCTAATCTTTCTGTTCAAGCGCCATCTAC”, the binding signal is 1.06 RPM ratio (pull-down/input). In the case of “GATGATTGTTCTCCCAGCTGATGAATTCTGTTTTTCGAGTAAACAAATTTTCCTAATCTTTCTGTTCAAGCGCCATCTAC”, the binding signal was 1.99 RPM ratio (pull-down/input). Regarding “GATGATTGTTCTCCCAGCTGATGAATTCACCGCATCGAGTAAACAAATTTTCCTAATCTTTCTGTTCAAGCGCCATCTAC”, the binding signal was 1.02 RPM ratio (pull-down/input). For the sequence “GATGATTGTTCTCCCAGCTGATGAATTATGAAATTCGAGTAAACAAATTTTCCTAATCTTTCTGTTCAAGCGCCATCTAC”, the binding signal was 1.09 RPM ratio (pull-down/input).

With “GATGATTGTTCTCCCAGCTGATGAATTAGGCCTGTCGAGTAAACAAATTTTCCTAATCTTTCTGTTCAAGCGCCATCTAC”, the binding signal is 0.853 RPM ratio (pull-down/input). Under “GATGATTGTTCTCCCAGCTGATGAATTCTGCGCCTCGAGTAAACAAATTTTCCTAATCTTTCTGTTCAAGCGCCATCTAC” stands 0.918 RPM ratio (pull-down/input); under “GATGATTGTTCTCCCAGCTGATGAATTCTAGCTGTCGAGTAAACAAATTTTCCTAATCTTTCTGTTCAAGCGCCATCTAC”, 0.826 RPM ratio (pull-down/input); under “GATGATTGTTCTCCCAGCTGATGAATTGTAACAGTCGAGTAAACAAATTTTCCTAATCTTTCTGTTCAAGCGCCATCTAC”, 1.15 RPM ratio (pull-down/input).

Turning to “GATGATTGTTCTCCCAGCTGATGAATTGGGCCCCTCGAGTAAACAAATTTTCCTAATCTTTCTGTTCAAGCGCCATCTAC”, the binding signal was 0.798 RPM ratio (pull-down/input). Turning to “GATGATTGTTCTCCCAGCTGATGAATTGCCTACCTCGAGTAAACAAATTTTCCTAATCTTTCTGTTCAAGCGCCATCTAC”, the binding signal was 0.948 RPM ratio (pull-down/input). Under “GATGATTGTTCTCCCAGCTGATGAATTTCCCCGATCGAGTAAACAAATTTTCCTAATCTTTCTGTTCAAGCGCCATCTAC” stands 0.841 RPM ratio (pull-down/input); under “GATGATTGTTCTCCCAGCTGATGAATTATTGGCCTCGAGTAAACAAATTTTCCTAATCTTTCTGTTCAAGCGCCATCTAC”, 1.1 RPM ratio (pull-down/input); under “GATGATTGTTCTCCCAGCTGATGAATTTCTGGAATCGAGTAAACAAATTTTCCTAATCTTTCTGTTCAAGCGCCATCTAC”, 0.906 RPM ratio (pull-down/input). Next, “GATGATTGTTCTCCCAGCTGATGAATTCCCTATATCGAGTAAACAAATTTTCCTAATCTTTCTGTTCAAGCGCCATCTAC”: 0.911 RPM ratio (pull-down/input); “GATGATTGTTCTCCCAGCTGATGAATTGATAGCGTCGAGTAAACAAATTTTCCTAATCTTTCTGTTCAAGCGCCATCTAC”: 1.12 RPM ratio (pull-down/input); “GATGATTGTTCTCCCAGCTGATGAATTCTTATTCTCGAGTAAACAAATTTTCCTAATCTTTCTGTTCAAGCGCCATCTAC”: 0.845 RPM ratio (pull-down/input). For the sequence “GATGATTGTTCTCCCAGCTGATGAATTTTCAGCATCGAGTAAACAAATTTTCCTAATCTTTCTGTTCAAGCGCCATCTAC”, the binding signal was 1.15 RPM ratio (pull-down/input).

Consider “GATGATTGTTCTCCCAGCTGATGAATTCTGCTTTTCGAGTAAACAAATTTTCCTAATCTTTCTGTTCAAGCGCCATCTAC”, for which the binding signal is 1.06 RPM ratio (pull-down/input). Under “GATGATTGTTCTCCCAGCTGATGAATTTTCTATCTCGAGTAAACAAATTTTCCTAATCTTTCTGTTCAAGCGCCATCTAC” stands 1 RPM ratio (pull-down/input); under “GATGATTGTTCTCCCAGCTGATGAATTTAAGATTTCGAGTAAACAAATTTTCCTAATCTTTCTGTTCAAGCGCCATCTAC”, 0.887 RPM ratio (pull-down/input); under “GATGATTGTTCTCCCAGCTGATGAATTGAAGAGCTCGAGTAAACAAATTTTCCTAATCTTTCTGTTCAAGCGCCATCTAC”, 0.737 RPM ratio (pull-down/input). Under “GATGATTGTTCTCCCAGCTGATGAATTAAGCGTCTCGAGTAAACAAATTTTCCTAATCTTTCTGTTCAAGCGCCATCTAC” stands 0.921 RPM ratio (pull-down/input); under “GATGATTGTTCTCCCAGCTGATGAATTAAACTCCTCGAGTAAACAAATTTTCCTAATCTTTCTGTTCAAGCGCCATCTAC”, 0.846 RPM ratio (pull-down/input); under “GATGATTGTTCTCCCAGCTGATGAATTGTCATTGTCGAGTAAACAAATTTTCCTAATCTTTCTGTTCAAGCGCCATCTAC”, 1.33 RPM ratio (pull-down/input).

“GATGATTGTTCTCCCAGCTGATGAATTTCGCCGCTCGAGTAAACAAATTTTCCTAATCTTTCTGTTCAAGCGCCATCTAC”: the binding signal is 0.854 RPM ratio (pull-down/input).

For the sequence “GATGATTGTTCTCCCAGCTGATGAATTGACCTATTCGAGTAAACAAATTTTCCTAATCTTTCTGTTCAAGCGCCATCTAC”, the binding signal is 1.01 RPM ratio (pull-down/input).

Take “GATGATTGTTCTCCCAGCTGATGAATTAGGTACGTCGAGTAAACAAATTTTCCTAATCTTTCTGTTCAAGCGCCATCTAC”: the binding signal is 0.921 RPM ratio (pull-down/input). Under “GATGATTGTTCTCCCAGCTGATGAATTCGAGGGGTCGAGTAAACAAATTTTCCTAATCTTTCTGTTCAAGCGCCATCTAC” stands 0.738 RPM ratio (pull-down/input).

(Values after article PMC12820563, “FoxP3 forms a head-to-head dimer in vivo and stabilizes its multimerization on adjacent microsatellites”.)
